Measurements reported in the supplement of paper PMC3334620.
In all, about 33,000 sequences were measured (“E-score (-0.5 to 0.5)”: median about -0.036, highest 2% from about 0.37 on). Some of the results follow.

Target: T1, Yer064c (UniProt P40041)
T1 sequence: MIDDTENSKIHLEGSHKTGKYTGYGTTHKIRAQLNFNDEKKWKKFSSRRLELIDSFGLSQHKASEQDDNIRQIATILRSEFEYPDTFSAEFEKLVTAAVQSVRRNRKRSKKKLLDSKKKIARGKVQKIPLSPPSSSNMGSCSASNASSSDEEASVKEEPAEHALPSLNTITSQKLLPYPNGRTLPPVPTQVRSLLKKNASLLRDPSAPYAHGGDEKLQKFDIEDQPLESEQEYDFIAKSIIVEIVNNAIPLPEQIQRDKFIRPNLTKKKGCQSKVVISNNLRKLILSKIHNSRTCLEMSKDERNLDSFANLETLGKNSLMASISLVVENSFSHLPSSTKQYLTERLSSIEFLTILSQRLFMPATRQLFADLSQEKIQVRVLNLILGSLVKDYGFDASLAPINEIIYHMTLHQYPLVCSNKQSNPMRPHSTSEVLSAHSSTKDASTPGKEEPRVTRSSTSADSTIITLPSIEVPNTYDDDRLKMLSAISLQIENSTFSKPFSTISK
Experiment: PBM E-score (8-mer binding enrichment) (E-score (-0.5 to 0.5)); higher = stronger / more preferred TF binding; most listed sequences are background and not binding sites
Settings: protein concentration: 200 nM; construct: GST-full length
How it was run: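 Yeast transcription factors carrying a GST tag, as full-length proteins or DNA-binding domains, were produced by PURExpress in vitro transcription/translation. About 100-200 nM protein was applied to universal all-10-mer Agilent arrays, double-stranded by primer extension on fresh or once-stripped slides. Bound protein was detected with fluorescent anti-GST, and scans were normalised with masliner. The Universal PBM Analysis Suite gave each ungapped eight-base word, pooled with its reverse complement, an E-score, a modified Wilcoxon-Mann-Whitney statistic.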

| Sequence | PBM E-score |
| --- | --- |
| AAGCCTAC | -0.182 |
| CCAGCGAG | -0.045 |
| ACCAGCCT | -0.262 |
| GCTTGTCC | -0.123 |
| GTTAAAAA | 0.0739 |
| ATCAATTC | 0.0434 |
| CCCGCTTC | -0.194 |
| CTTGGAAA | -0.0507 |
| AGACCGAC | -0.0493 |
| GCCACCGA | -0.0215 |
| ACGTTATC | -0.143 |
| AGCACTGA | 0.191 |
| ATCCTGAC | 0.172 |
| AACAGCCT | -0.224 |
| CCCAGGGA | -0.258 |
| TGGAGTAA | 0.17 |
| CGAAATCC | -0.158 |
| CGCTAACA | -0.0316 |
| CGAGTATA | 0.0439 |
| ACATATGC | -0.144 |
| ATATTTTA | 0.0625 |
| TCTTGCAA | 0.0602 |

| Sequence | PBM E-score |
| --- | --- |
| ATCAGTAG | 0.242 |
| ATCCGACC | -0.0508 |
| AGGTAAAG | -0.00367 |
| ACCCCATC | -0.0645 |
| ACAGTTGA | 0.0659 |
| CATGGACC | -0.185 |
| ACTGCGCA | 0.0561 |
| AATTACTG | -0.0389 |
| CCCATAAC | -0.101 |
| AGTTTATA | -0.0115 |
| ATGGCGTC | -0.328 |
| CGAATTAA | 0.00148 |
| AAACGTGC | -0.176 |
| CCATGTCG | -0.08 |
| AGCTTCCG | -0.221 |
| CCGGACCA | -0.183 |
| ACAAGCCC | -0.159 |
| AAGTATAT | -0.0325 |
| ACTTGCGA | 0.117 |
| TAACGTTA | 0.0502 |
| ATTGATCC | 0.0238 |
| AGAACTAG | -0.041 |

| Sequence | PBM E-score |
| --- | --- |
| TCGCGCGA | 0.108 |
| AGATCCAA | -0.114 |
| CGAATACC | -0.129 |
| CAAGTGCG | -0.0239 |
| GGGTCGAA | 0.0364 |
| AGGCCGGG | -0.225 |
| AGATCTCC | -0.057 |
| CGCAGAAG | -0.136 |
| ATACCGGA | 0.0903 |
| CTATCGCA | 0.0247 |
| GCCTTGTA | -0.116 |
| ATGTGACA | -0.0107 |
| CGTAGGTA | -0.186 |
| CCCAATCA | 0.159 |
| GAGCCACA | 0.107 |
| CGCCAAAG | -0.0708 |
| ATAGATTG | 0.025 |
| AAACTCAC | 0.183 |
| ACGACTGC | 0.19 |
| CTGTGCTA | -0.0603 |
| CCCTCGCC | -0.184 |
| CATGCCTA | -0.0682 |

| Sequence | PBM E-score |
| --- | --- |
| AACCCTGA | 0.155 |
| TACAAACA | 0.0972 |
| TTGCCAAA | -0.0365 |
| CTTATGCC | 0.00776 |
| CACGCGCG | -0.0929 |
| CCGGCACC | -0.131 |
| ATCGATTG | 0.0826 |
| AACGCCAG | 0.029 |
| GCAAGGGC | -0.265 |
| ACCTGTAG | -0.12 |
| CATCCCGG | -0.195 |
| ATAAGAGG | 0.133 |
| ACAAGAAG | 0.0447 |
| ATGTGCCG | -0.0965 |
| GTGGCAGA | -0.238 |
| CGAAATTA | 0.142 |
| GAACATGA | 0.149 |
| CCGCTTAC | 0.026 |
| CTACCTGC | -0.0946 |
| CACGACCA | 0.0151 |
| ATCCGAGA | -0.00631 |
| AGGTATAG | -0.0533 |

| Sequence | PBM E-score |
| --- | --- |
| CTGAACAC | 0.0664 |
| AGCCATCC | 0.293 |
| GCGTAGGA | -0.0348 |
| CACAGCCA | 0.0242 |
| AGCTGGGA | -0.0804 |
| GAGTACCC | 0.114 |
| CGCCCAGC | -0.0899 |
| AGGCCGTC | -0.243 |
| ATATTAAG | 0.167 |
| GCAACGCC | -0.229 |
| AAATGACC | -0.0187 |
| AACGGCCA | -0.18 |
| CACTGGTC | -0.0661 |
| AAAACTTT | -0.143 |
| ACACGCGT | 0.169 |
| GCGTCAAA | -0.15 |
| CGGTTACC | 0.0378 |
| AGTTGCTC | -0.166 |
| CGAAACGC | -0.112 |
| GAATGCCA | -0.127 |
| AGTAGCGG | 0.106 |
| ATCCTTTC | -0.011 |
